Data on 80 compounds can be found in ChEMBL document CHEMBL1201862, “PubChem BioAssay data set” (2004).

The structures appear in SMILES notation.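 Values below derive from 48-hour exposures of cells grown in 96-well plates, with endpoints linearly interpolated between the two concentrations bracketing the appropriate inhibition level. Abbreviation: GI50, concentration required for 50% inhibition of growth.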 Calls of active or inactive are those of the source. Cut-off read from the data, not from the text of the source: active = GI50 up to about 1.1 µM and inactive = higher.

In the experiment the test system is NCI-H322M. Put plainly: NCI-60 cell line screen, 48 h.
Consider `O=C(O)c1cc2ccc3ccccc3c2oc1=O`, for which the GI50 was inactive: > 100 µM.

With `O=C(O)/C=C\C(=O)Nc1ccccn1`, the GI50 was inactive: > 100 µM.

As for `Nc1nc(O)c2c(n1)NCN(c1ccc(S(N)(=O)=O)cc1)C2`, the GI50 was inactive: > 100 µM.

On to `C[C@H](CCC1=NCCN1)[C@H]1CC[C@H]2[C@@H]3CC[C@@H]4C[C@H](O)CC[C@]4(C)[C@H]3CC[C@]12C`, for which the GI50 was inactive: 9.42 µM.

On to `COc1ccc2c3c1C(=O)CCC3CO2` (stereo not given), for which the GI50 was inactive: > 100 µM.

`COc1ccc2cc1Oc1ccc(cc1)CC1c3cc4c(cc3CCN1C)Oc1c(OC)cc3c(c1O4)C(C2)N(C)CC3` (stereo not given): the GI50 is inactive: 4.17 µM.

For `O=C1C2C3C4C1C1C2[C@H](OCc2ccccc2)C3C1[C@H]4OCc1ccccc1` (stereo not given in full), the GI50 is inactive: 33.6 µM.

`COc1ccccc1-c1nc[nH]c1-c1ccccc1OC`: the GI50 is inactive: 29.9 µM.

For `CC(=O)OC1CC2(C)OC(Cc3ccccc32)O1` (stereo not given), the GI50 is inactive: > 100 µM.

For `Cc1[nH]c2ccccc2c1C(=O)CC1(O)C(=O)Nc2ccccc21` (stereo not given), the GI50 was inactive: > 100 µM.

As to `O=C(O)CNS(=O)(=O)c1ccc(NC(=O)c2ccccc2[N+](=O)[O-])cc1`, the GI50 is inactive: > 100 µM.

`O=C1CC(=O)c2c(N3CCCC3)sc(N3CCCC3)c21`: the GI50 was inactive: > 100 µM.

With `CC(=O)C1CC2(c3ccccc3)C(=O)c3ccccc3N2O1` (stereo not given), the GI50 is inactive: > 100 µM.

As for `Cc1nc2ccc(Cl)cc2c(Cl)c1CCCl`, the GI50 is inactive: > 100 µM.

Regarding `C=C1C(=O)CC2C1CC(=O)/C(C)=C/CCC(C)(O)C2O` (stereo not given), the GI50 is inactive: 47.1 µM.

On to `N=C1C(=N)c2ccccc2-c2ccccc21`, for which the GI50 was inactive: 1.75 µM.

Consider `C=C=C(Sc1ccccc1)C(C)(C)O`, for which the GI50 was inactive: > 100 µM.

As for `Cn1cc(-c2ccc3c4ccccc4n(C)c3c2)c2ccccc21`, the GI50 was inactive: > 100 µM.

Take `CC1=NN(c2nc(N)nc(CSCc3nc(N)nc(N(C)C)n3)n2)C(C)(C)C1`: the GI50 is inactive: > 100 µM.

In the case of `Clc1ccc(SCCSCCCCCCCCCCSCCSc2ccc(Cl)cc2)cc1`, the GI50 was inactive: > 100 µM.

Consider `Cc1cc(C)c(/C=C(\C(=C/c2c(C)cc(C)cc2C)[N+](=O)[O-])[N+](=O)[O-])c(C)c1`, for which the GI50 is inactive: > 100 µM.

As for `O=C(Nc1nnc(-c2ccccc2)o1)C(SC(=S)N1CCOCC1)c1ccccc1` (stereo not given), the GI50 was inactive: 11.8 µM.

Regarding `CC(=O)Oc1c2c(c3n(c1=O)CCCC3)C(=O)N(c1ccccc1)C2=O`, the GI50 is inactive: > 100 µM.

Take `NC1CC2C3CCC2C1C3=O` (stereo not given): the GI50 was inactive: > 100 µM.

Turning to `CCCCOC(=O)NC(Nc1ccc(S(=O)(=O)Nc2ncccn2)cc1)(C(F)(F)F)C(F)(F)F`, the GI50 is inactive: > 100 µM.

For `COc1cc(S(=O)(=O)Nc2nc(-c3ccc(N4C(=O)/C(=C\c5cccs5)N=C4c4ccccc4)cc3)cs2)ccc1Cl`, the GI50 was inactive: > 100 µM.

For the compound `CO/C(N)=C(C#N)/N=C/c1ccc2ccccc2c1`, the GI50 was inactive: 35.5 µM.

Consider `NNC(=S)N/N=C/C(=C/Nc1ccccc1)[N+](=O)[O-]`, for which the GI50 is inactive: > 100 µM.

Take `CC[C@@H]1CC[C@@H]2[C@H](CC[C@]3(C)[C@@H](OC(C)=O)CC[C@@H]23)[C@H]1C(=O)OC`: the GI50 is inactive: 34.2 µM.

Regarding `OCC(O)C(OC1OC(CO)C(O)C(O)C1O)c1nn(-c2ccc(Cl)cc2)c2nc3cc(Cl)c(Cl)cc3nc12` (stereo not given), the GI50 was inactive: 91 µM.

`CCSc1nc2n(c(=S)n1)CCN2C`: the GI50 was inactive: 22.8 µM.

Take `Cn1c(=O)[nH]c2nccnc2c1=O`: the GI50 was inactive: > 10 µM.

Take `O=C(/C=C/c1ccccc1O)c1ccccc1Cl`: the GI50 was inactive: 56.1 µM.

Turning to `CC#C[P+](c1ccccc1)(c1ccccc1)c1ccccc1`, the GI50 was inactive: 11 µM.

For `Cc1c(Cl)cccc1NC(=O)C(=O)c1c(O)c2ccc(O)cc2oc1=O`, the GI50 is inactive: > 100 µM.

For the compound `[N-]=[N+]=Nc1c(Cc2ccccc2)c(Cl)nc2ccccc12`, the GI50 was inactive: 13.1 µM.

For the compound `COC(=O)C(=O)C(C(=O)C(=O)Nc1ccccc1[N+](=O)[O-])c1nc2ccc([N+](=O)[O-])cc2nc1O` (stereo not given), the GI50 was inactive: > 100 µM.

Consider `CNc1nc(=O)c(C#N)c(-c2ccc(C)cc2)s1`, for which the GI50 was inactive: > 100 µM.

`Oc1c(C2=NNC(c3ccc(Cl)cc3Cl)C2)ccc2ccccc12` (stereo not given): the GI50 is inactive: 49.3 µM.

As for `C=CC1=C(C)c2cc3[nH]c(c4c5nc(cc6[nH]c(cc1n2)c(C=O)c6CC)C(C)=C5C(=O)[C@@H]4C(=O)OC)[C@@H](CCC(=O)O)[C@@H]3C`, the GI50 was inactive: > 100 µM.

`CC1(c2ccccc2)CC(c2ccccc2)=NO1` (stereo not given): the GI50 is inactive: > 100 µM.

Regarding `Cc1nc(N)c(N2CCN(S(N)(=O)=O)CC2)c(O)n1`, the GI50 was inactive: > 100 µM.

In the case of `COC(=O)c1c(C)c2c(c(C)c1C(=O)OC)-c1c(C)ccc3ccc(C)c-2c13`, the GI50 was inactive: 67 µM.

With `COc1cc(/C=C/C2=NN(c3cccc(S(=O)(=O)O)c3)C3(C2)C(Cl)C(=O)N3c2nc3ccccc3s2)ccc1O` (stereo not given), the GI50 is inactive: 82.4 µM.

Turning to `N#Cc1c(N)c(C(=O)O)nn(-c2cccc(C(F)(F)F)c2)c1=O`, the GI50 was inactive: > 100 µM.

Regarding `CC[C@@]1(C[C@H]2C[C@@]3(C(=O)OC)c4[nH]c5ccccc5c4CCN3C2=S)COC2(CCCCC2)O1`, the GI50 is inactive: > 100 µM.

For `O=NN1C(c2ccccc2)C2CCCC(C2=O)C1c1ccccc1` (stereo not given), the GI50 was inactive: 45.9 µM.

As to `N/N=C(/Cc1nc2ccc(C(=O)c3ccccc3)cc2nc1O)C(=O)Nc1ccc([N+](=O)[O-])cc1[N+](=O)[O-]`, the GI50 is inactive: > 100 µM.

For `CSc1nc2[nH]c(=O)c(C)nc2c(=O)[nH]1`, the GI50 was inactive: > 100 µM.

Turning to `C/C(=N\NC(=S)N1CCCCC1)c1nc2cccnc2[nH]1`, the GI50 was inactive: 15.6 µM.

For `CC(=O)C(=NNc1ccc(-n2c(C)nc3ccccc3c2=O)cc1)C(C)=O`, the GI50 is inactive: > 100 µM.

For `O=c1[nH]nc(-c2ccccc2)c(-c2ccccc2)c1-n1nc(-c2ccccc2)c2ccccc2c1=O`, the GI50 was inactive: > 100 µM.

Take `CCOC(=O)C1C(=O)CC(O)(c2ccccc2)C(C(=O)OCC)C1c1ccc(N(C)C)cc1` (stereo not given): the GI50 was inactive: 67.1 µM.

Consider `COC(=O)/C=C1\C(CO[Si](C)(C)C(C)(C)C)OC(n2cc(C)c(=O)n(C)c2=O)C1O[Si](C)(C)C(C)(C)C` (stereo not given), for which the GI50 was inactive: > 100 µM.

For `N#C/C(=C1\SC(/N=N/c2ccccc2)C(=O)N1c1ccccc1)c1nc2ccccc2[nH]1` (stereo not given), the GI50 is inactive: > 100 µM.

With `Cn1ccnc1CCc1ccc(F)cc1F`, the GI50 was inactive: > 100 µM.

For `O=c1c2cc3c(cc2[nH]c2ncccc12)OCO3`, the GI50 is inactive: > 10 µM.

In the case of `C[Si](C)(C)c1ccc(-c2sc(-c3ccc([Si](C)(C)C)s3)c3c2C[Si]2(C3)Cc3c(-c4ccc([Si](C)(C)C)s4)sc(-c4ccc([Si](C)(C)C)s4)c3C2)s1`, the GI50 is inactive: > 100 µM.

Take `COc1ccc(CCN2CCc3c(C)c(C#N)c4nc5ccccc5n4c32)cc1OC`: the GI50 is inactive: 45.7 µM.

For `C[C@]12CCC(=O)C=C1CC[C@@H]1[C@@H]2CC[C@]2(C)C(=O)/C(=C/c3ccc([N+](=O)[O-])cc3)C[C@@H]12`, the GI50 was inactive: > 100 µM.

Consider `Oc1ccc(Cn2c(-c3ccc(O)c(O)c3)nc3ccccc32)cc1O`, for which the GI50 was inactive: 15.3 µM.

`COC(=O)NC(=O)c1cn(C2CCCCC2)c(=O)[nH]c1=O`: the GI50 was inactive: > 100 µM.

Turning to `CCOC(=O)/C(=C\c1ccccc1)C(=O)O`, the GI50 is inactive: > 100 µM.

Turning to `Cc1ccc(-c2c(C#N)c(-c3ccc(Cl)cc3)c(C#N)c(=O)n2NS(=O)(=O)c2ccccc2)cc1`, the GI50 was inactive: 79.8 µM.

`COc1ccc2c3c1OC1C(=O)C=CC4(CC2)N(C)CCC314` (stereo not given): the GI50 is inactive: 22.9 µM.

Turning to `COC(=O)/C(C)=C(/CCC1(C)OCCO1)O[Si](C)(C)C`, the GI50 is inactive: 33.2 µM.

As for `COC(CN(C)C(=S)Nc1cccc2ccccc12)OC`, the GI50 is inactive: > 10 µM.

With `C[C@H]1[C@H](N2CCCC2)O[Si](C(C)(C)C)(C(C)(C)C)[C@@H]1C`, the GI50 was inactive: > 100 µM.

As to `COc1ccc(-c2cc(-c3ccccc3)nc3c2CC(=O)Nc2ccccc2-3)cc1OC`, the GI50 is inactive: > 100 µM.

With `O=C(O)/C=c1/c2ccccc2n2nc3ccccc3c12`, the GI50 is inactive: 18.7 µM.

As to `CCCCCCCCOC1C(O)C(O)C(O)C(O)C12CO2` (stereo not given), the GI50 was inactive: > 100 µM.

For the compound `NC(Cc1ccc(S(=O)(=O)O)cc1)C(=O)NC(CCCCNC(=O)NCCCCC(NC(=O)C(N)Cc1ccc(S(=O)(=O)O)cc1)C(=O)NC(Cc1ccc(S(=O)(=O)O)cc1)C(=O)O)C(=O)NC(Cc1ccc(S(=O)(=O)O)cc1)C(=O)O` (stereo not given), the GI50 is inactive: > 100 µM.

As to `O=[N+]([O-])c1cccc(/N=N/c2c(O)c(S(=O)(=O)O)cc3cc(S(=O)(=O)O)ccc23)c1`, the GI50 is inactive: > 100 µM.

On to `Nc1ncnc2c1ncn2CCCC(c1ccccc1)P(=O)(O)O` (stereo not given), for which the GI50 was inactive: > 100 µM.

In the case of `CC(NNC(=O)c1cc[n+]([BH2-]C#N)cc1)c1ccccc1` (stereo not given), the GI50 was inactive: > 100 µM.

On to `C[C@@H]1C2=CC[C@@]3(C)C(CCC3[C@H](C)[C@H]3C[C@@]4(C)O[C@@](c5cccnc5)(O3)OC4(C)C)[C@@H]2C2OC2[C@@]12CCC(=O)O2` (stereo not given in full), for which the GI50 was inactive: 72.9 µM.

As to `CC(C)(C)C1CCP(=O)(c2ccccc2)CC1` (stereo not given), the GI50 is inactive: > 100 µM.

Take `COc1cccc2c1C(=O)c1c(O)c3c(c(O)c1C2=O)C[C@@](O)(C(=O)CO)C[C@@H]3OC1CC(N2CCOCC2C#N)C(O)C(C)O1` (stereo not given in full): the GI50 is active: 9.16e-05 µM.

With `O=C1c2ccc(O)cc2C(=O)c2ccc(O)cc21`, the GI50 was inactive: 42 µM.

As to `COc1ccc2oc(-c3ccc(OC)c(OC)c3OC)cc(=O)c2c1`, the GI50 was inactive: > 100 µM.
